Laboratory results taken from publication PMC8668186, “Molecular architecture of the human tRNA ligase complex” (eLife, 2021).
Some entries of the source have several records that differ or are many. Only these are listed. The source may hold further records. Some protein pairs were linked at several places, one record each.

target: RTCB (UniProt Q9Y3I0); assay: cross-linking mass spectrometry; settings: DSS, purified complex
Sequence of UniProt Q9Y3I0 (Q9Y3I0 whole entry): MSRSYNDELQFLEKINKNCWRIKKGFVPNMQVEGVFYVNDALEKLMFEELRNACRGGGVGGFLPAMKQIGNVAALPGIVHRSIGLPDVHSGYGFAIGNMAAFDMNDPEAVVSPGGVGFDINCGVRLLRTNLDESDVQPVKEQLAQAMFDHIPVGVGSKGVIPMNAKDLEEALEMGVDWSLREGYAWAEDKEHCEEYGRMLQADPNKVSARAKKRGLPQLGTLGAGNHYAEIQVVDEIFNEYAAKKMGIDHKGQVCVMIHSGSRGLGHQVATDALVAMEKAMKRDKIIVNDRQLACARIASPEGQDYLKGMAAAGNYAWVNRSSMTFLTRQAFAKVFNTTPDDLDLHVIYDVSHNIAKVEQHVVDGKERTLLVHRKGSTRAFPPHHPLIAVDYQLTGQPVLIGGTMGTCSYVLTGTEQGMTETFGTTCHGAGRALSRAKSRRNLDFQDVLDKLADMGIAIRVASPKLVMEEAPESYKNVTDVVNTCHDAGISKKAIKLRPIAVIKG

Sequence of C2orf49 (Q9BVC5 whole entry): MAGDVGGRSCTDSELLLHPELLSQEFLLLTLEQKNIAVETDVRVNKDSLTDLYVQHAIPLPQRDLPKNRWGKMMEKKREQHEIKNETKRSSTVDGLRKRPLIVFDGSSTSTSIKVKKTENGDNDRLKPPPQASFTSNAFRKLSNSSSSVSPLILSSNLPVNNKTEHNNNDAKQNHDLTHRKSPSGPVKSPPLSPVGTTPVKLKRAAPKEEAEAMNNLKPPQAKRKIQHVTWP
Sequence of RTRAF, Q9Y224 (Q9Y224 whole entry): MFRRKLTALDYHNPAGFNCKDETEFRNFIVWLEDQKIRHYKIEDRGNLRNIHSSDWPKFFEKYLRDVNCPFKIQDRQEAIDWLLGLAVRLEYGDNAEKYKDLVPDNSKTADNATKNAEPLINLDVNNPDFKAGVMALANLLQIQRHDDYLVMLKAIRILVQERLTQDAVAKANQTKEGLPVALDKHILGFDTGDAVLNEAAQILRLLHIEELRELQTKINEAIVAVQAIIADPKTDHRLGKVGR
Sequence of FAM98B (Q52LJ0 whole entry): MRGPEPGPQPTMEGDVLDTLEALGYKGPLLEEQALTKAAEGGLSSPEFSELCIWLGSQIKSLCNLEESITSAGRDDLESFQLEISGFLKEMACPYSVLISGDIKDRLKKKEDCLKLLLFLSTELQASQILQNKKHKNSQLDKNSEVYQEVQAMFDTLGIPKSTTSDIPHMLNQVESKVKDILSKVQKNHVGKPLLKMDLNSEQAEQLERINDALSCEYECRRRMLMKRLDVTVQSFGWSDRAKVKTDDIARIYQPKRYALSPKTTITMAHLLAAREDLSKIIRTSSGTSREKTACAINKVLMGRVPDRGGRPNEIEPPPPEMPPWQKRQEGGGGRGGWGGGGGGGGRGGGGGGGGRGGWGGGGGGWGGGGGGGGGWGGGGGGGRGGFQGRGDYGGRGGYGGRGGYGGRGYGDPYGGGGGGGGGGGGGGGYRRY
Sequence of DDX1 (Q92499 whole entry): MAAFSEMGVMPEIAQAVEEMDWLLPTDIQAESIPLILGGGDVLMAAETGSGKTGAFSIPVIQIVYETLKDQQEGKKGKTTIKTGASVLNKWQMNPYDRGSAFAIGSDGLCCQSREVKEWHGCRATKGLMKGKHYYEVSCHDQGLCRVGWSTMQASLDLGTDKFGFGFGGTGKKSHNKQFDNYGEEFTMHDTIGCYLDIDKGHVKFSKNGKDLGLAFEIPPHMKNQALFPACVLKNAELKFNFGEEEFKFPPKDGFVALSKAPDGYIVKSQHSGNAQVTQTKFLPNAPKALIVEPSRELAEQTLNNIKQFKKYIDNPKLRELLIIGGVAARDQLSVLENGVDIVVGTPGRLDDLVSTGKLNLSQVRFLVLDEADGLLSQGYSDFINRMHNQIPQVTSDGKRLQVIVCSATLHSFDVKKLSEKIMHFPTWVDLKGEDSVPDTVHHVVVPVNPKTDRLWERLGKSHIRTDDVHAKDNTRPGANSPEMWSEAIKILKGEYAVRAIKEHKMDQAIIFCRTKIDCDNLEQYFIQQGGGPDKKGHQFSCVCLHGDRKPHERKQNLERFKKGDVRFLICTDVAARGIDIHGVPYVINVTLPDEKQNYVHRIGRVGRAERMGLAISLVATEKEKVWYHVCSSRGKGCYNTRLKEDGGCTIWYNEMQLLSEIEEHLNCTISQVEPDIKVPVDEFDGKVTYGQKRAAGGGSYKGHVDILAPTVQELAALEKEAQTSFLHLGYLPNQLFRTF

Substance | cross-linked residues
DDX1, Q92499 | K117 - K285 and K117 - K366 and K117 - K465 and K317 - K465 and K358 - K465 and K399 - K285 and K399 - K465 and K472 - K206 and K472 - K285 and K472 - K366 and K505 - K285 and K516 - K285 and K536 - K285 and K623 - K465 and K687 - K206 and K693 - K206 and K693 - K285 and K693 - K366 and K702 - K206 and K702 - K308
C2orf49, Q9BVC5 | K127 - K366 and K127 - K465 and K225 - K366
RTRAF, Q9Y224 | K41 - K366 and K171 - K245 and K176 - K244 and K176 - K245 and K185 - K492 and K234 - K158

target: RTRAF (UniProt Q9Y224); assay: cross-linking mass spectrometry; settings: DSS, purified complex

Substance | cross-linked residues
FAM98B, Q52LJ0 | K26 - K100 and K110 - K72 and K115 - K72 and K136 - K98 and K136 - K100 and K142 - K100 and K142 - K108 and K177 - K171 and K179 - K154 and K184 - K154 and K184 - K171 and K187 - K171 and K245 - K41 and K245 - K234 and K256 - K20 and K256 - K98 and K256 - K100 and K256 - K154 and K256 - K171 and K256 - K234 and K263 - K154 and K280 - K154 and K280 - K176
DDX1, Q92499 | K117 - K20 and K472 - K20 and K636 - K20 and K693 - K20 and K693 - K62
C2orf49, Q9BVC5 | K46 - K20 and K72 - K98 and K84 - K41 and K84 - K58 and K84 - K62 and K88 - K62 and K98 - K41 and K98 - K62 and K117 - K20 and K127 - K20 and K127 - K41 and K127 - K62 and K127 - K72 and K127 - K234
